The text below walks through data of PMC4336329 (PLoS ONE, 2015).

The whole screen tested about 310,000 compounds, of which about 2,200 (0.71%) showed an effect of 50% or more. Effects have a minus sign here. This is one part of the list.

Sequence of human ether-à-go-go-related gene (hERG) potassium channel (Q12809 whole entry, looked up): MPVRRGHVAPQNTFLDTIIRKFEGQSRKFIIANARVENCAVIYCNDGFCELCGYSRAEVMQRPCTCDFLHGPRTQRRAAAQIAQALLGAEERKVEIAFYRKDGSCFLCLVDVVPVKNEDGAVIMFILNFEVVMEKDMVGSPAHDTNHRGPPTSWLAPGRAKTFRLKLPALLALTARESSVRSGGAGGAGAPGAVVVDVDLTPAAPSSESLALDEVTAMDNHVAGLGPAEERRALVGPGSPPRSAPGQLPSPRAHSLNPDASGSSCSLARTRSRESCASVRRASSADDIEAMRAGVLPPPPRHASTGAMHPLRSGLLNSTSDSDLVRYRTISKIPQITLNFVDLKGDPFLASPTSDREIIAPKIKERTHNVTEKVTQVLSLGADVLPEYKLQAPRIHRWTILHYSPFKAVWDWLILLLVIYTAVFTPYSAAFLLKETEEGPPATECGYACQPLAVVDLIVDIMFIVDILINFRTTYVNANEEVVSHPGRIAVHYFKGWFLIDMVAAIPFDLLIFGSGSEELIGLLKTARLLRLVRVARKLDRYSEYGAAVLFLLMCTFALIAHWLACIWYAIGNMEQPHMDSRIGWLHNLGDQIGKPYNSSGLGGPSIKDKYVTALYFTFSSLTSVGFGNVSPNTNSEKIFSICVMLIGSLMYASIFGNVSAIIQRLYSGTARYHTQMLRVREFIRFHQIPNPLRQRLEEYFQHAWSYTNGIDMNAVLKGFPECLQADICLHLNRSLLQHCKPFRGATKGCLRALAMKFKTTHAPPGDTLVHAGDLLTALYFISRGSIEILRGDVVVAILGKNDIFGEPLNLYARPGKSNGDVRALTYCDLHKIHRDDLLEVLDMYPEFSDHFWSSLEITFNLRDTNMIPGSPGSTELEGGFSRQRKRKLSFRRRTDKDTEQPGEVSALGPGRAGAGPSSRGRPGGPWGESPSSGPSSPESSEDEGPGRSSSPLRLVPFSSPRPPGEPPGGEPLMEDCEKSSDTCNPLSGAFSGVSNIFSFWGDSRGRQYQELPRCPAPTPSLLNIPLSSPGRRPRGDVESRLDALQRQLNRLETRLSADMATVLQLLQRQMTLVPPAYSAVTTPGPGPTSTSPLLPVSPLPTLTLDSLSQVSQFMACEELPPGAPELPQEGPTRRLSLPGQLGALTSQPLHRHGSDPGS

This assay concerns the target human ether-à-go-go-related gene (hERG) potassium channel (human, UniProt Q12809). The experiment in a line: primary screen, population patch clamp on CHO cells stably expressing hERG.
Turning to `Cl.O=C1CCN=C(Nc2ccc(F)cc2)N1Cc1ccccc1`, the “hERG current change (%, negative = inhibition) at 1uM” value is listed as -2.25%.
In the case of `COC(=O)c1ccccc1NC(=O)C1CCCN(S(=O)(=O)c2ccc(OC)cc2)C1` (centres unmarked) it was 9.71%.
Next, `O=C(Nc1cccc(S(=O)(=O)N2CCCCC2)c1)C1CC(=O)N(c2ccc3c(c2)OCCO3)C1` (centres unmarked): 14.8%.
Next, `CC(=O)Nc1cccc(NC(=O)CSc2nnc3ccc(-c4ccncc4)nn23)c1`: -6.2%; `CC(C)n1cc(/C=C2/NC(=O)NC2=O)c2ccccc21`: 8.64%; `Cl.O=C(/C=C/c1cccc(OCc2ccccc2)c1)c1cccnc1`: 17.4%.
`FC(F)(F)c1nc(Oc2ccccc2)c2ccccc2n1`: the “hERG current change (%, negative = inhibition) at 1uM” value was found to be 13.6%.
Next, `COc1cccc(S(=O)(=O)NCc2ccc3c(c2)OCO3)c1`: -2.94%.
Next, `Cc1cc2nc(SC(C)C(=O)O)[nH]c2cc1C` (centres unmarked): 24.1%; `Cc1nn(CC(=O)Nc2ccccc2C(F)(F)F)c(=O)c2cccn12`: 9.96%; `COc1ccc(OC)c(S(=O)(=O)N(C)CC(=O)N2CCN(c3ccc(F)cc3)CC2)c1`: -14.7%.
For the compound `CCOC(=O)N1CCN(S(=O)(=O)c2ccc([N+](=O)[O-])cc2)CC1`, the “hERG current change (%, negative = inhibition) at 1uM” value worked out at 5.8%.
For `CCN(CCO)c1cc(Cl)nc(SC)n1`, the “hERG current change (%, negative = inhibition) at 1uM” value is reported as -8.84%.
Regarding `COc1ccc(S(=O)(=O)N2CCOCC2)cc1NC(=O)c1ccc(Cl)cc1`, the “hERG current change (%, negative = inhibition) at 1uM” value is listed as 5.23%.
In the case of `CCc1ccc(N2CC(C(=O)Nc3ccc4c(c3)OCCO4)CC2=O)cc1` (centres unmarked) it was -18.5%; in that of `CCC(=O)NC(=S)Nc1cccc(NC(=O)c2ccc(Cl)cc2Cl)c1`, 11.9%.
In the case of `Cl.N=c1sccn1CC(=O)Nc1ccc(Cl)c(S(=O)(=O)N2CCOCC2)c1` it was -6.76%.
Next, `O=C(O)CN(c1ccccc1)S(=O)(=O)c1cc(C(F)(F)F)cc(C(F)(F)F)c1`: 8.81%.
`O=C(COc1coc(CN2CCCc3ccccc32)cc1=O)Nc1ccc([N+](=O)[O-])cc1`: the “hERG current change (%, negative = inhibition) at 1uM” value was determined as 11.9%.
Take `O=C(c1ccccc1SCc1ccc(F)cc1)N1CCOCC1`: the “hERG current change (%, negative = inhibition) at 1uM” value is on record as 22.6%.
Next, `COc1ccc(-c2sc(Nc3ccccc3)n[n+]2-c2ccc(F)cc2)c(C)c1C.[Cl-]`: -26.7%.
In the case of `CCCSC(=O)N(CC)CC(=O)Nc1c(CC)cccc1CC`, the “hERG current change (%, negative = inhibition) at 1uM” value was 7.75%.
Next, `COc1cccc(CCNC(=O)CC2C(=O)NCCN2Cc2ccc(Cl)c(F)c2)c1` (centres unmarked): 6.19%; `N#Cc1ccc(CSc2nnc(NC(=O)C3CCCO3)s2)cc1` (centres unmarked): 6.13%; `COCCn1c(=NC(=O)CSCC(=O)N2CCOCC2)sc2ccccc21`: 10.1%.
In the case of `COc1ccc(-c2cn3c(C)c(C(=O)NC(C)(C)C)sc3n2)cc1` it was 8.29%; in that of `O=C(CCc1nnc(-c2ccccc2)o1)NCc1cc(F)ccc1F`, 0.576%; in that of `COc1ccc(Cl)cc1NC(=O)CN(C)C(=O)c1cn2ccccc2n1`, 2.56%.
For `O=C(COc1cc2oc(=O)c3c(c2cc1Cl)CCC3)Nc1ccc(CN2CCOCC2)cc1`, the “hERG current change (%, negative = inhibition) at 1uM” value is recorded as 15.1%.
In the case of `CCOc1ccc(C(=O)N2CCN(c3ncccn3)CC2)cc1` it was 2.78%; in that of `Cc1ccc(-c2ccc(/C=N\NC(=O)c3cc4c(ccc5ccccc54)o3)o2)cc1[N+](=O)[O-]`, 8.49%; in that of `Cc1cc(C)c(NC(=O)C(C)N2CCCCCC2)c(C)c1.Cl` (centres unmarked), -0.673%.
In the case of `O=C(NCc1nc2ccccc2[nH]1)C1=C[C@H](c2csc3ccccc23)C[C@H](OCc2ccc(CO)cc2)O1` it was 8.07%.
With `Nc1nc(CN2CCN(c3ccccc3F)CC2)nc(Nc2ccc3c(c2)OCCO3)n1`, the “hERG current change (%, negative = inhibition) at 1uM” value is -38%.
Next, `O=S(=O)(NC1CC1)c1ccc(S(=O)(=O)N(Cc2ccccn2)C2CC2)cc1`: -1.98%; `COc1ccc(NC(=O)Cn2nnc(C(=O)NCCc3ccc(OC)c(OC)c3)c2N)cc1`: 4.26%.
In the case of `COc1ccccc1C(=O)NCC(=O)N=Nc1c(O)n(C(C)C)c2ccccc12`, the “hERG current change (%, negative = inhibition) at 1uM” value was 4.82%.
With `O=C(OCc1ccc([N+](=O)[O-])cc1)c1ccc2ccccc2n1`, the “hERG current change (%, negative = inhibition) at 1uM” value came to 4.58%.
In the case of `Cc1nc2scc(C)n2c(=O)c1S(=O)(=O)NCCc1ccc(Cl)cc1`, the “hERG current change (%, negative = inhibition) at 1uM” value is recorded as 13.5%.
In the case of `COC(=O)c1ccc(N2CCCCC2)c(N)c1` it was 5.36%; in that of `CCCCCCCCCCCC(=O)NC(Cc1ccc(OC)c([N+](=O)[O-])c1)C(=O)[O-].[NH4+]` (centres unmarked), 0.0132%.
As to `CS(=O)(=O)c1ccc2nc(NC(=O)C3=NN(c4ccccc4)C(=O)CC3)sc2c1`, the “hERG current change (%, negative = inhibition) at 1uM” value is listed as -9.56%.
Next, `COc1ccc(NC(=O)N2CCCC2C(=O)NCC2CCCCC2)cc1` (centres unmarked): 11.1%; `O=C(CSc1ccccc1)NC1=NCCS1`: 10.5%.
Consider `CCC1=NC(c2ccccc2Cl)N(O)C1(C)C` (centres unmarked), for which the “hERG current change (%, negative = inhibition) at 1uM” value was 20.4%.
In the case of `CC1CCCN(C(=O)CSc2nnc(-c3ccncc3)n2C)C1` (centres unmarked) it was 29.6%; in that of `CC(=O)Nc1cccc(C(=O)N/N=C/c2ccc(F)cc2)c1`, 14.6%.
In the case of `Cc1cccc(OC(C)C(=O)Nc2nccs2)c1` (centres unmarked) it was 12.9%; in that of `Cc1cccc(NC(=O)CSc2nc(C)c(CC(=O)c3ccc(Br)cc3)c(C)c2C#N)c1C`, 22.3%; in that of `O=C(NC1CN2CCC1CC2)c1ccc(-c2ccc([N+](=O)[O-])cc2)o1` (centres unmarked), -12.6%.
Turning to `CCCNC(=O)NC(=O)CN1C(=O)NC(C)(c2ccc3ccccc3c2)C1=O` (centres unmarked), the “hERG current change (%, negative = inhibition) at 1uM” value came to 8.72%.
In the case of `COc1ccc(C2CC(=O)Nc3ccccc3S2(=O)=O)cc1OC` (centres unmarked) it was 11.2%; in that of `CCC1(COC(=O)Nc2cccc(Cl)c2)COC1`, 8.83%; in that of `C=CCNc1nc2c(c(=O)n(C)c(=O)n2C)n1CC`, 10.9%.
In the case of `Cc1ccc(CNC(=O)CN2C(=O)COc3ccc(S(=O)(=O)N4CCCCC4)cc32)o1`, the “hERG current change (%, negative = inhibition) at 1uM” value amounted to 12.7%.
Consider `C=C1N2CCC(CC2)C1(O)c1ccccc1C.Cl` (centres unmarked), for which the “hERG current change (%, negative = inhibition) at 1uM” value amounted to 9.13%.
Regarding `CCOc1ccccc1OCCn1nnc2ccccc21`, the “hERG current change (%, negative = inhibition) at 1uM” value is recorded as 5.02%.
In the case of `Cc1nc2nc[nH]n2c(=O)c1NC(=O)CCc1ccccc1` it was 2.3%.
In the case of `Cc1cccc(C)c1NC(=O)C(c1ccccc1)N1CCC1=O` (centres unmarked) it was 7.61%.
Next, `O=C(NC(=S)Nc1cc(C(F)(F)F)ccc1N1CCOCC1)c1ccc(-c2cccc(Cl)c2)o1`: 2.52%.
Turning to `CC(C)Nc1nc(NC(C)C)nc(NS(=O)(=O)c2ccc(N)cc2)n1`, the “hERG current change (%, negative = inhibition) at 1uM” value amounted to 1.74%.
For `Cc1cc(C)c(S(=O)(=O)c2cccc(C(F)(F)F)c2)c(=O)[nH]1`, the “hERG current change (%, negative = inhibition) at 1uM” value is recorded as 10.7%.
In the case of `CCOC(=O)CC(NC(=O)c1ccccc1)c1ccc(OC)cc1` (centres unmarked) it was 15.1%.
As for `O=[N+]([O-])c1ccc(C2=NCCO2)cc1`, the “hERG current change (%, negative = inhibition) at 1uM” value is on record as 11%.
In the case of `COc1cc(C(=O)Oc2ccccc2/C=N/NC(=O)c2ccc(C)c(Cl)c2)cc(OC)c1OC` it was -2.03%.
In the case of `CC[C@@H](C(N)=O)N1CCCC1=O` it was -2.85%.
For the compound `O=C(O)CP(=O)(O)c1ccc(Cl)cc1`, the “hERG current change (%, negative = inhibition) at 1uM” value is listed as 3.42%.
In the case of `O=C(Nc1cccnc1Cl)c1cccnc1Cl`, the “hERG current change (%, negative = inhibition) at 1uM” value turned out to be 1.53%.
Next, `COc1ccc(CNC(=O)C2CCCN2S(=O)(=O)c2ccc(Cl)cc2)cc1` (centres unmarked): -1.64%.
In the case of `O=C1CC(N2CCOCC2)C(=O)N1c1cccc(Cl)c1` (centres unmarked) it was 3.56%; in that of `COc1ccccc1N1C(=O)c2ccccc2NC1c1cc(OC)c(OC)c(OC)c1` (centres unmarked), 10.7%; in that of `Cl.O=C(NC12CC3CC(CC(C3)C1)C2)c1ccc(=O)oc1`, 5.61%.
Regarding `Cc1ccc(S(=O)(=O)N2CCC(=O)N(CCOCc3ccccc3)CC2)cc1`, the “hERG current change (%, negative = inhibition) at 1uM” value was 12.6%.
In the case of `Cc1cc(C)nc(NC2=NCC(=O)N2c2cc(Cl)cc(Cl)c2)n1` it was 5.31%; in that of `COCCN1CCn2c(nc3cc(NC(C)=O)ccc32)C1`, 15.7%; in that of `COc1ccc2c(C)cc(SCC(=O)Nc3cc(C(N)=O)cc(C(N)=O)c3)nc2c1`, 6.35%.
Next, `Cn1c(=NC(=O)c2ccc3c(c2)OCCO3)sc2cc(S(C)(=O)=O)ccc21`: 30.4%; `CC(C)c1ccc(C(=O)Nc2cccnc2)cc1`: 21.3%; `COc1ccc(NC(=O)CS(=O)c2ccc(Cl)c(Cl)c2)cc1` (centres unmarked): 8.96%.
In the case of `CN(CC(=O)Nc1ccccc1Cl)C(=O)c1cc(-c2cccs2)nn1-c1ccccc1` it was 18.3%.
On to `Cc1ccc(N(CC(=O)O)S(C)(=O)=O)cc1`, for which the “hERG current change (%, negative = inhibition) at 1uM” value is -2.88%.
On to `Clc1cccc(Cl)c1Cn1cnc2c(NCc3ccco3)ncnc21`, for which the “hERG current change (%, negative = inhibition) at 1uM” value is given as -0.966%.
Next, `COC(=O)c1c(C(=O)OC)c(C)n(Cc2ccco2)c1C`: 3.81%.
In the case of `O=C(NNc1ccc(F)cc1F)c1c(F)cccc1Cl` it was 13.5%.
Next, `OC(COCc1cccs1)CN1CCN(c2ccccn2)CC1` (centres unmarked): -1.22%; `CC(=O)c1ccc(OC(=O)N2CCOCC2)cc1`: 13.7%.
Regarding `Cc1nnc(SCc2ccccc2)nc1-c1ccccc1`, the “hERG current change (%, negative = inhibition) at 1uM” value is listed as 8.84%.
With `COc1cc(S(=O)(=O)n2nc(C)cc2C)ccc1Cl`, the “hERG current change (%, negative = inhibition) at 1uM” value amounted to 6.71%.
In the case of `COc1ccc(OC)c(CNC(=O)C2CCCN(c3ncnc4c3nc3n4CCCCC3)C2)c1` (centres unmarked) it was -12.7%.
